In all, about 220,000 compounds went through this assay and about 16,000 (7.3%) were called active. The shares of active, inactive and inconclusive entries below differ from those in the screen. Calls come from the whole dose curve; as a rule, active = well fitted inhibition curve with a large enough effect (not every such curve was filed as active); inconclusive = small, poorly fitted or top-dose-only effect, or another doubt; inactive = no such curve, though single readings can be large or run the other way. Potencies of inconclusive entries are left out as doubtful fits.
Target: Aldehyde dehydrogenase 1A1 (Homo sapiens) (UniProt P00352)
Chain of UniProt P00352 (P00352 whole entry, looked up): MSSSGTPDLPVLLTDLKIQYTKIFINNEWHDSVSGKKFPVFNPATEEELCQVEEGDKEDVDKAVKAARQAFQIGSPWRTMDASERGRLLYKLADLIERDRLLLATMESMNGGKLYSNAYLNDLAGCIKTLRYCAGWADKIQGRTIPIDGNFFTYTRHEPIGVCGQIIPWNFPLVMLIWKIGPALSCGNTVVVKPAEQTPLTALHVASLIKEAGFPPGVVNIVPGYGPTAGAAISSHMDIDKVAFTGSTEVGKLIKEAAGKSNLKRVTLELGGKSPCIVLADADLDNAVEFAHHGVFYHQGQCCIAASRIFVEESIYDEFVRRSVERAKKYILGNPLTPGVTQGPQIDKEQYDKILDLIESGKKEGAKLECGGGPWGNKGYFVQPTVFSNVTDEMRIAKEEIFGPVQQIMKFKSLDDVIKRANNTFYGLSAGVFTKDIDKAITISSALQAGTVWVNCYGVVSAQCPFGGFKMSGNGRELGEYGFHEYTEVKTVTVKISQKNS
Assay: qHTS Assay for Inhibitors of Aldehyde Dehydrogenase 1 (ALDH1A1);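 for activity, negative = inhibition: plate controls were no enzyme wells and a reference inhibitor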
Settings: Purified ALDH1A1, NADH fluorescence, propionaldehyde substrate; series mostly up to 75.3 µM; activity, negative = inhibition: at the top concentration
Potency is the fitted concentration of half-maximal effect; tags give direction and shape of the fitted curve.

Row | Compound | Potency | activity, negative = inhibition
1 | CCN(CC)S(=O)(=O)c1cccc(NC(=O)COC(=O)c2cccs2)c1 | inconclusive [inhibitor, single point] | 
2 | CC(C)(C)C1CCc2c(sc(N)c2C(N)=O)C1 (configuration not stated) | inconclusive [inhibitor, partial curve] | 
3 | Cc1ccc(C2CC(c3ccccc3OC(F)F)Nc3ncnn32)cc1 (configuration not stated) |  | inactive: 4.46%
4 | COc1ccc(N(C(=O)c2cccc([N+](=O)[O-])c2)S(=O)(=O)c2ccc3c(c2)n(C)c(=O)n3C)cc1 | inconclusive [inhibitor, partial curve] | 
5 | CCNC(=O)c1ccccc1NC(=O)c1cccc(S(=O)(=O)N2CCC(C)CC2)c1 | inconclusive [inhibitor, single point] | 
6 | Cc1nc2ncccn2c1-c1csc(Nc2ccc(O)cc2)n1 |  | inactive: -6.96%
7 | COc1cc(C)c(NC(=O)C(=S)NCCc2ccccc2)cc1C | inconclusive [inhibitor, single point] | 
8 | O=C(Cc1cccs1)N1CCN(c2ccc(F)cc2)CC1 |  | inactive: 1.17%
9 | CCOC(=O)CCC(=O)Nc1cccc([N+](=O)[O-])c1 |  | inactive: 5.95%
10 | Cc1ccc(Cn2c(SC(C)C(N)=O)nc3ccccc3c2=O)cc1 (configuration not stated) | inconclusive [inhibitor, single point] | 
11 | CCOC(=O)C1CCCN(C(=O)CCc2ccccc2)C1 (configuration not stated) | inconclusive [inhibitor, single point] | 
12 | COCCn1c(=O)c(CCc2ccccc2)nc2cnc(N(C)C)nc21 | inconclusive [inhibitor, single point] | 
13 | Cc1oc2cc(O)ccc2c(=O)c1-c1cnn(-c2ccccc2)c1 | inconclusive [inhibitor, single point] | 
14 | COc1ccc(S(=O)(=O)n2nc(OC(=O)c3cccs3)cc2N)cc1 | inconclusive [inhibitor, partial curve] | 
15 | O=C(/C(=C(\[O-])c1ccccc1)[n+]1ccc2ccccc2c1)c1ccc([N+](=O)[O-])cc1 | inconclusive [inhibitor, single point] | 
16 | Cn1c(-c2cc3ccc(OC(=O)C(C)(C)C)cc3oc2=O)nc2ccccc21 | inconclusive [inhibitor, partial curve] | 
17 | CCOC(=O)CSc1nc(C)cc(C)c1C#N | active: 25.1 µM | 
18 | O=C(c1ccc(-c2ccccc2)cc1)c1ccccc1C(=O)N1CCOCC1 | inconclusive [inhibitor, single point] | 
19 | CCCCCCCC1=Cc2ccccc2C(CC(=O)c2ccccc2)N1C(=O)OC (configuration not stated) |  | inactive: 0.922% [at 13.5 µM]
20 | CCCCCCCCCCCCOC1OC(CO)C(O)C(O)C1NC(C)=O (configuration not stated) |  | inactive: 7.74%
21 | CC(C)NC(=O)c1onc(CSc2ccc(C(C)C)cc2)c1C(=O)O | inconclusive [inhibitor, single point] | 
22 | Cn1c(SCC(=O)c2ccccc2F)nnc1C1CC1 | inconclusive [inhibitor, single point] | 
23 | COc1ccc(-c2cccc(C(=O)Nc3ccccc3C)c2)cc1 | inconclusive [inhibitor, single point] | 
24 | O=C(C1=C[C@H](c2ccccc2)C[C@H](OCc2ccc(CO)cc2)O1)N1CCN(Cc2ccccc2)CC1 | active: 14.1 µM | 

Row | Compound | Potency | activity, negative = inhibition
25 | COC(=O)c1cccc(NC(=O)CN2CCOCC2)c1 | inconclusive [inhibitor, single point] | 
26 | O=C(Nc1cnn(Cc2ccccc2)c1)c1cc2nc(-c3ccco3)cc(C(F)(F)F)n2n1 | inconclusive [inhibitor, single point] | 
27 | NS(=O)(=O)c1ccc(NC(=S)NC2CCCCCC2)cc1 | inconclusive [inhibitor, single point] | 
28 | Cc1nn(C(C)C)c(C)c1CN1CCCC(C(=O)c2cccc(OC(C)C)c2)C1 (configuration not stated) |  | inactive: 11.7%
29 | CC(C)Cn1c(N)c(C(=O)COC(=O)C2=COCCO2)c(=O)n(C)c1=O |  | inactive: -1.21%
30 | CC(C)(O)C1Cc2cc(/C=C/C(=O)O)c(O)cc2O1 (configuration not stated) | inconclusive [inhibitor, single point] | 
31 | COc1ccc(C(C)=O)cc1COc1ccc(-n2cnnn2)cc1 | active: 3.55 µM | 
32 | COc1ccc(NC(=O)C2CC(=O)n3cnnc3S2)cc1 (configuration not stated) | active: 0.708 µM | 
33 | COC(=O)c1ccc(C(NC(=O)OCc2ccccc2)/C(=C/[C@@H](C)C(=O)Nc2ccc(OC)cc2)c2cccnc2)cc1 (some centres not stated) |  | inactive: -2.98%
34 | O=C1CC(NCc2ccc3c(c2)OCO3)C(=O)N1CCc1ccccc1 (configuration not stated) | active: 14.1 µM | 
35 | COc1ccc(C2c3sc(=O)[nH]c3SC3C(=O)N(c4ccccc4)C(=O)C32)cc1 (configuration not stated) | active: 22.4 µM | 
36 | CCCn1c(-c2ccc(F)cc2)nc2c(NCCCN(CCO)CCO)nc(C)nc21 | inconclusive [inhibitor, partial curve] | 
37 | CCOC(=O)C(=CN(CCc1ccccc1)CC(=O)OC)C(=O)OCC |  | inactive: 15.5%
38 | CN1CCc2c(c3ccccc3n2Cc2ccccc2)C1 | inconclusive [inhibitor, single point] | 
39 | Cc1cccc(C=Nc2ccc3c4c(cccc24)CC3)c1O | inconclusive [inhibitor, partial curve] | 
40 | CCCCCn1c(=O)c(C(=O)c2ccccc2)nc2ccccc21 | inconclusive [inhibitor, single point] | 
41 | O=C(Nc1cc(S(=O)(=O)N2CCOCC2)ccc1Cl)C(=O)c1c(-c2ccccc2)cc2ccccn12 | inconclusive [inhibitor, full curve] | 
42 | Cc1nn(C)c(Oc2ccccc2)c1CCNS(=O)(=O)c1ccc(Cl)cc1 | inconclusive [inhibitor, partial curve] | 
43 | COc1cc2nc(=S)n3[nH]c(CCn4nc(C)cc4C)nc3c2cc1OC | inconclusive [inhibitor, single point] | 
44 | Cc1ccc(OCC(=O)N/N=C\c2cn(C)c3ccccc23)c([N+](=O)[O-])c1 |  | inactive: 2.5%
45 | COc1ccc(OC)c(N(CC(=O)Nc2cccnc2)S(=O)(=O)c2ccc(OC)c(OC)c2)c1 |  | inactive: 9.26%
46 | Cc1ccc(-c2c3c(nc4sc(C(N)=O)c(N)c24)CCCC3)o1 | inconclusive [inhibitor, single point] | 
47 | CC1=C(C(=O)OC2CCCCC2)C(c2ccc(C)o2)C2=C(CCCC2=O)N1 (configuration not stated) | inconclusive [inhibitor, partial curve] | 
48 | CC(C)CC(=O)NC(=S)Nc1cccc(NC(=O)c2ccccc2)c1 | active: 25.1 µM | 

Row | Compound | Potency | activity, negative = inhibition
49 | Cc1ccc(NC(=O)c2nc(C)n(-c3ccc([N+](=O)[O-])cc3)n2)cc1 | inconclusive [inhibitor, single point] | 
50 | N#C/C(C(=O)NCc1ccccc1)=C1/N=C(NC(=O)c2ccco2)c2ccccc21 | inconclusive [inhibitor, single point] | 
51 | O=C(c1cnn2c(C(F)(F)F)cc(-c3ccccc3)nc12)N1CCCCC1c1cccnc1 (configuration not stated) | inconclusive [inhibitor, single point] | 
52 | COCCn1c(=S)[nH]c2cc(C(=O)NCCCN3CCOCC3)ccc2c1=O | active: 15.8 µM | 
53 | Cc1cc(S(=O)(=O)NCC(C)C)ccc1OCC(=O)NCC1CCCO1 (configuration not stated) |  | inactive: -0.395%
54 | Fc1ccc(C[n+]2csc3ccccc32)cc1 | active: 3.98 µM | 
55 | Cc1nn(Cc2ccc(F)cc2)c(Cl)c1/C=N/NC(=O)c1cccnc1 | inconclusive [inhibitor, single point] | 
56 | CC(=O)NC1C(=O)Nc2c(C)cc(C)cc21 (configuration not stated) | inconclusive [inhibitor, full curve] | 
57 | CC(C)CNC(=O)COC(=O)c1n[nH]c2ccccc12 | inconclusive [inhibitor, single point] | 
58 | CC(C)C(=O)Nc1cccc(NC(=S)NC(=O)c2ccc(Cl)cc2)c1 | active: 10 µM | 
59 | Cc1ccc(OCCN2CCN(CC(O)Cn3c4ccccc4c4ccccc43)CC2)cc1 (configuration not stated) | inconclusive [inhibitor, full curve] | 
60 | CCN=C(Nc1ccc2c(c1)OCO2)SC1CC(=O)N(c2ccccc2F)C1=O (configuration not stated) | active: 17.8 µM | 
61 | CCOC(=O)Cc1nnc(NC(=O)COc2ccc(OC)cc2)s1 |  | inactive: -11.2%
62 | N#Cc1cc2c(=O)n3ccccc3nc2n(CCN2CCOCC2)c1=O | inconclusive [inhibitor, partial curve] | 
63 | CSc1nc2ccsc2c(=O)n1-c1ccccc1 | inconclusive [inhibitor, single point] | 
64 | O=C1Nc2cc(Cl)cnc2N2CCCC12 (configuration not stated) | inconclusive [inhibitor, single point] | 
65 | CNc1ccccc1C(C)(C)c1cc(-c2cccc([N+](=O)[O-])c2)no1 |  | inactive: 0.977%
66 | OC1(c2ccc(F)cc2)CCN(Cc2nnnn2Cc2cccs2)CC1 | active: 4.47 µM | 
67 | O=C1C=C(NCCOC23CC4CC(CC(C4)C2)C3)C2(CCCCC2)O1 | inconclusive [inhibitor, single point] | 
68 | COc1ccc(CCn2c(=S)[nH]c3cc(C(=O)N4CCOCC4)ccc3c2=O)cc1OC | inconclusive [inhibitor, single point] | 
69 | N#C/C(=C\c1ccc(N2CCCCC2)o1)C(=O)Nc1cccc(Br)c1 | inconclusive [inhibitor, full curve] | 
70 | COc1cc(/C=N/NC(=O)c2ccc(C)nc2)cc([N+](=O)[O-])c1O |  | inactive: -3.5%
71 | Cc1ccsc1/C=N/n1c(-c2cc(-c3ccccc3)n[nH]2)n[nH]c1=S |  | inactive: -2.22%
72 | Cc1ccc(C)n1-c1ccc2c(c1)COC2=O | inconclusive [inhibitor, single point] | 

From PubChem BioAssay AID1030 (National Center for Advancing Translational Sciences (NCATS), 2008)
